Test results published in EP4676544A1 (dated 2026).

Molecular target: T1, human L1CAM (Neural cell adhesion molecule L1) (human, UniProt P32004 20-1257)
T1 construct: whole, on cells; also called L1CAM proteins on the cancer cell surface
Experiment: flow cytometry on 22 cancer cell lines carrying L1CAM, fluorescent secondary antibody, compared with a control antibody

T1 sequence (P32004 20-1257): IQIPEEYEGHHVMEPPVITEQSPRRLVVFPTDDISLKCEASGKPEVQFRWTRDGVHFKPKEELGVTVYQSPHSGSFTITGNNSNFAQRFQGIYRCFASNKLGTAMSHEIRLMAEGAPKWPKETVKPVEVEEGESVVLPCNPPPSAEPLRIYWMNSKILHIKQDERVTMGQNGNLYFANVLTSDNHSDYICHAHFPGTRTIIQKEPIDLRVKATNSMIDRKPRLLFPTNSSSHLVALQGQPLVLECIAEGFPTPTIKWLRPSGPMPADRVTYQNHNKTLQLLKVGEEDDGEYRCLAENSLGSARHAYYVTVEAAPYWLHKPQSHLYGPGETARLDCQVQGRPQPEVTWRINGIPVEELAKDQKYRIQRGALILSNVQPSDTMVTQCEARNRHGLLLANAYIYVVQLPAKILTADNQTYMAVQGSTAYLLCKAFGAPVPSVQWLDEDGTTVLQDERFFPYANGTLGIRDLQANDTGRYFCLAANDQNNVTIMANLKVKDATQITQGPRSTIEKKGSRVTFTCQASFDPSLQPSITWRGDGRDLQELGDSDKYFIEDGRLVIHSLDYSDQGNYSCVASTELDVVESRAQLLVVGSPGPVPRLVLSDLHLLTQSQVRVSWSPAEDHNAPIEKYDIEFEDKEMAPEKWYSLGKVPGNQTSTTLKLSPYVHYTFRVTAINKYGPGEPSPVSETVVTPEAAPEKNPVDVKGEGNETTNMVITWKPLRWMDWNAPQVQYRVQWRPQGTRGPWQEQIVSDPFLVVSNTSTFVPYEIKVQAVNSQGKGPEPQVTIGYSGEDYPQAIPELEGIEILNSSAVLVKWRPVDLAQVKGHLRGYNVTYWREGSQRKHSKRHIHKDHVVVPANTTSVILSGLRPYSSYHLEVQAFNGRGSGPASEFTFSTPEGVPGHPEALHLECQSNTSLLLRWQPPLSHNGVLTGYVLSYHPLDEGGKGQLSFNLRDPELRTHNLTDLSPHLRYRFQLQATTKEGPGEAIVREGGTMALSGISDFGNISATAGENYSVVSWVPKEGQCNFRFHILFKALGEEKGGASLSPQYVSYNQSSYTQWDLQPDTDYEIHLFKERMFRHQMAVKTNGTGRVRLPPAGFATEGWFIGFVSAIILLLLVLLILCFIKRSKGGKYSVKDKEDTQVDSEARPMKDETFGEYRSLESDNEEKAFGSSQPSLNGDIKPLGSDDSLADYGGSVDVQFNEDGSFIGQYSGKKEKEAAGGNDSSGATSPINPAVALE

binding result: binds
B1: AFF4-CaaX (antibody, human IgG1, kappa)
heavy: QVQLQESGPGLVKPSQTLSLTCTVTGYSITSDYTWNWIRQFPGKGLEWMGYISYSGSYSYNPSLKSRVTISRDTSKNQFSLKLSSVTAADTAVYYCARSFSYSYGFAYWGQGTLVTVSSASTKGPSVFPLAPSSKSTSGGTAALGCLVKDYFPEPVTVSWNSGALTSGVHTFPAVLQSSGLYSLSSVVTVPSSSLGTQTYICNVNHKPSNTKVDKRV[… human IgG1 Fc with changes …]
light: DIQMTQSPSSLSASVGDRVTITCKASQDVSSAVAWYQQKPGKAPKLLIYSASYRYTGVPSRFSGSGSGTDFTFTISSLQPEDFATYYCQQHYSTPWTFGGGTKVEIKRTVAAPSVFIFPPSDEQLKSGTASVVCLLNNFYPREAKVQWKVDNALQSGNSQESVTEQDSKDSTYSLSSTLTLSKADYEKHKVYACEVTHQGLSSPVTKSFNRGECGGGGGGGCVIM
notes: also called AFF4-CaaX antibody; anti-L1CAM antibody
